Reference: PubChem BioAssay AID1240 (Sanford-Burnham Center for Chemical Genomics, 2008)
About 800 (1.6%) of roughly 50,000 compounds showed an effect of 50% or more. The list shows a part of the results.

Target: Bcl-2-like protein 10 (Homo sapiens) (UniProt Q9HD36)
Experiment: TR3 peptide-Bcl-B binding displacers, biochemical primary FP assay, phenotype converters (AID 1240);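 further: 0% = Bcl-B with tracer peptide and DMSO and 100% = tracer peptide lacking Bcl-B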
Conditions: GST-Bcl-B / FITC-TR3 peptide fluorescence polarization; stronger effect = higher value; compound at 3.75 mg/L

UniProt Q9HD36, sequence (Q9HD36 whole entry, looked up): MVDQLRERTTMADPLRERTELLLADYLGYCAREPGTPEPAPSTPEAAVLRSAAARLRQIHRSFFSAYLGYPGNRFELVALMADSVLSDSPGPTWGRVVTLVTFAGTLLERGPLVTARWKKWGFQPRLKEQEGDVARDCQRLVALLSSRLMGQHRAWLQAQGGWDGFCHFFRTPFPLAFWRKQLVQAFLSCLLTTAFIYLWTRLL

Row | SMILES | displacement [%]
1 | O=C(NCc1ccc(Cl)cc1)c1ccc(C#Cc2ccccc2)cc1 | -4.5
2 | CCOc1ccc(NC(=O)CN(c2cccc(C(F)(F)F)c2)S(C)(=O)=O)cc1 | 2.8
3 | O=C1C=C(NCc2ccncc2)CC(c2ccccc2)C1 (stereo unspecified) | 7.1
4 | O=C1c2ccccc2NC(c2ccco2)N1O (stereo unspecified) | 0
5 | CCCN(CCC)CC(O)COC1CCC(C(C)(C)C)CC1 (stereo unspecified) | -8.7
6 | O=C(N/N=C/c1cc([N+](=O)[O-])cc(Br)c1O)c1ccncc1 | 10.6
7 | Cc1cccc(NC(=O)c2cc3ccccc3oc2=O)n1 | 9.9
8 | CCCOc1ccc(-c2cc(C(=O)N3CCCCCC3)c3ccccc3n2)cc1 | -3.4
9 | CC(=O)NNC(=O)c1cccc(Cl)c1 | -9.1
10 | Cc1ccc(Cl)cc1N1C(=O)C2C3C=CC(CO)(O3)C2C1=O (stereo unspecified) | -3.7
11 | O=C(/C=C/c1ccc(Cl)cc1Cl)Nc1nn[nH]n1 | -5
12 | Cc1ccccc1C(=O)Nc1ccccc1C(=O)N1CCCCC1 | 15.9
13 | CC1(C)C(C=C(Cl)Cl)C1C(=O)NC1CCCCC1 (stereo unspecified) | 4
14 | COc1ccc(N(CC(=O)Nc2ccccc2)S(C)(=O)=O)cc1Cl | 3.3
15 | Cc1ccc(NCC(=O)N/N=C\c2cccc(OC(=O)c3ccco3)c2)cc1 | 7.1
16 | O=C(NCCc1ccccc1)c1nn2c(c1Br)NC(c1cccs1)CC2C(F)(F)F (stereo unspecified) | 2.4
17 | O=C(Cc1ccc(Br)cc1)Nc1cc([N+](=O)[O-])ccc1Cl | 4.4
18 | COc1ccc(-n2c(O)c(C=Nc3ccc(Cl)cc3)c(=O)[nH]c2=O)cc1 | 14.3
19 | COc1ccc(NC2=NS(=O)(=O)c3cc([N+](=O)[O-])ccc32)cc1 | -7.5
20 | O=C(NC(=S)Nc1ccc([N+](=O)[O-])cc1Cl)c1ccco1 | 11.2
21 | C[n+]1ccc2c(c1)ncn2Cc1ccccc1 | -22.4
22 | Cc1cc(Cl)ccc1OCC(=O)Nc1ccc(F)c([N+](=O)[O-])c1 | 11.4
23 | NC(N)=N/N=C/c1ccccc1OCc1ccc(Cl)cc1 | 15

Row | SMILES | displacement [%]
24 | CCOC(=O)c1ccc(NC(=O)CN(c2cc(C)cc(C)c2)S(=O)(=O)c2ccccc2)cc1 | 4.7
25 | CCOC(=O)C(=CNc1cc(Cl)c(-c2ccco2)c(Cl)c1)C(=O)OCC | 15.7
26 | O=C1C2C(C(=O)N1/N=C/c1ccco1)C1C=CC2C12CC2 (stereo unspecified) | 4.5
27 | CCOC(=O)CCc1c(C)nc2cc(-c3ccc(Br)cc3)[nH]n2c1=O | 9.9
28 | CC1=C(C)CC2C(=O)N(c3ccc(Cl)cc3Cl)C(=O)C2C1 (stereo unspecified) | -8.5
29 | O=C1NN(c2ccc(Cl)c(Cl)c2)C(=O)/C1=C/c1cccn1-c1ccc([N+](=O)[O-])cc1 | 1.7
30 | O=[N+]([O-])c1ccc(NC(=S)Nc2ccc(F)cc2)c(O)c1 | 2.1
31 | COc1ccc(C(C)=O)c(OC(C)=O)c1 | -9.9
32 | COc1ccc(OC)c(NC(=O)c2ccccc2C)c1 | 2.8
33 | CCCCOC(=O)C1=C(C)NC2=C(C(=O)CC(c3ccccc3)C2)C1c1ccco1 (stereo unspecified) | -19.4
34 | Cc1[nH]c2ccc(Br)cc2c(=O)c1CC=C(Cl)Cl | -6.6
35 | CCOC(=O)CSc1nc(N)c(C#N)c(-c2ccc(O)cc2)c1C#N | 4
36 | Cc1ccc(N2C(=O)CC(NCc3ccc(Cl)cc3Cl)C2=O)cc1 (stereo unspecified) | 8.1
37 | CC(C)c1ccccc1NS(=O)(=O)c1ccc([N+](=O)[O-])cc1 | 3.1
38 | COc1ccc(NS(=O)(=O)c2cc(C)ccc2C)cc1 | 2
39 | O=c1nc(-c2ccccc2)c2cc(OC(F)(F)F)ccc2[nH]1 | 10.2
40 | CCCOc1ccc(-c2cn3ccccc3n2)cc1 | -16.5
41 | CC(=O)Nc1ccc(/C=C(/C#N)C(=O)N/N=C/c2ccc(NC(C)=O)cc2)cc1 | 110
42 | O=C(Nc1ccncc1)c1cccc(F)c1 | -3
43 | N/C(Cc1ccc([N+](=O)[O-])cc1)=N\OC(=O)C(c1ccccc1)c1ccccc1 | -34.1
44 | CC12CC3CC(C)(C1)CC(C(=O)Nc1cc(Cl)ccc1Cl)(C3)C2 | 1.3
45 | CC(=O)Nc1ccccc1NS(=O)(=O)c1ccccc1[N+](=O)[O-] | -7.2
46 | COc1cc(OC)cc(C(=O)Nc2ccc(-c3nc4cc(C)cc(C)c4o3)cc2)c1 | 55.3

Row | SMILES | displacement [%]
47 | CC(=O)c1sc(NC(=O)c2cccc([N+](=O)[O-])c2)nc1C | 7.9
48 | O=C(c1ccccc1)C1(C(=O)c2ccccc2)CCCC1 | -9.8
49 | C=CCOC(=O)C1=C(C)NC(C)=C(C(=O)OCC=C)C1c1ccccc1F | 7.8
50 | Cc1ccc(F)c(NC(=O)C2CC(=O)N(c3ccc(Cl)cc3)C2)c1 (stereo unspecified) | 7.7
51 | COc1ccc(CN2C(=O)NC(=O)/C(=C\C=C\c3ccco3)C2=O)cc1 | 33.4
52 | COc1ccc(N2C(=O)c3cccc4cccc(c34)C2=O)cc1OC | 43.6
53 | CC(C)CNC(=O)c1cccc(NC(=O)Cc2ccc(Cl)cc2)c1 | 8
54 | Cc1cc(OCC(=O)Nc2cccnc2)cc(C)c1Cl | -1.1
55 | O=C(/C=C/c1ccco1)N1CCN(c2cccc(Cl)c2)CC1 | -19.5
56 | O=C(Nc1ccc(S(=O)(=O)Nc2ncccn2)cc1)c1cccs1 | 10.5
57 | Cc1ccc(C(=O)Nc2c(C(=O)N3CCC(Cc4ccccc4)CC3)cnn2-c2ccccc2)cc1 | -8.3
58 | O=C(/C=C/c1ccccc1)N1CCN(c2ccc(F)cc2)CC1 | -8.6
59 | COc1nccc(NCc2ccccc2)c1C#N | -12.3
60 | N/C(=N\OC(=O)COc1ccc2ccccc2c1)c1ccc([N+](=O)[O-])cc1 | 11
61 | O=C1c2cccc([N+](=O)[O-])c2C(=O)N1c1cccc(-c2nc3ccccc3c(=O)o2)c1 | 2
62 | CC(Oc1ccccc1)C(=O)Nc1ccccc1F (stereo unspecified) | 4.4
63 | NC(=O)C1CCN(C(=O)c2cccc(F)c2)CC1 | 14.3
64 | O=C(O)COc1ccc(/C=N/NC(=O)C(O)(c2ccccc2)c2ccccc2)cc1 | -8.8
65 | O=[N+]([O-])c1ccccc1S(=O)(=O)NCc1ccc(F)cc1 | -0.2
66 | C=CCNC(=O)/C(=C\c1ccc(Cl)cc1)NC(=O)c1ccco1 | -7.9
67 | COc1ccc(C(=O)c2ccc(OC)c(N)c2)cc1N | 2.2
68 | CC1=C(C(=O)OCC(F)(F)F)C(c2cccc(Cl)c2)NC(=O)N1 (stereo unspecified) | 3.2
69 | N#CC1=C(N)Oc2c(ccc3cccnc23)C1c1ccc(Cl)cc1Cl (stereo unspecified) | 17.7

Row | SMILES | displacement [%]
70 | O=C(c1ccccc1)c1coc2ccc(O)cc12 | 18.1
71 | O=C1C2C(C(=O)N1/N=C/c1ccccc1Cl)C1C=CC2C12CC2 (stereo unspecified) | 3.3
72 | C/C(=N\NC(=O)c1cc(Br)ccc1O)c1cccnc1 | 3.9
73 | Cc1nn(-c2ccccc2)c(N2CCCCC2)c1/C=N/Nc1ccc(C(F)(F)F)cn1 | 1.7
74 | CC(=O)Nc1ccc(C(=O)Nc2ccc(Cl)cc2Cl)cc1 | 8.3
75 | Cc1ccc(S(=O)(=O)N(C)CCCC(=O)Nc2cccc(C)c2C)cc1 | 10.1
76 | COc1ccc(NC(=O)Nc2nnc(CC(C)C)s2)cc1 | 5.7
77 | Cc1cc(C)nc(SC/C=C/CSc2nc(C)cc(C)n2)n1 | -1
78 | Cc1ccc(N2CC(C(=O)N/N=C/c3ccc4c(c3)OCO4)CC2=O)cc1 (stereo unspecified) | -7
79 | CCCC(=O)Nc1cccc(NC(=O)c2ccc(-c3ccc(Cl)cc3Cl)o2)c1 | 2.3
80 | CCOc1cc(C2C(C(=O)OC)=C(C)NC3=C2C(=O)CC(C)(C)C3)ccc1OC(=O)C1CC1 (stereo unspecified) | 3.3
81 | CCOc1ccc(C(=O)Nc2cc(C(F)(F)F)cc(C(F)(F)F)c2)cc1 | 2.1
82 | COc1ccccc1-n1c(SCc2ccccc2)nc2ccccc2c1=O | 9.9
83 | Cc1cc2nc3s/c(=C\c4ccc(N5CCOCC5)c([N+](=O)[O-])c4)c(=O)n3c2cc1C | 2.9
84 | O=c1[nH]c(=O)n(-c2ccc(Cl)cc2)c(O)c1C=Nc1cccc(F)c1 | 10
85 | Cc1ccc(/C=N/NC(=O)CSc2ncccn2)cc1 | -5
86 | Cc1ccccc1-c1ncnn1-c1cccc(Cl)c1C | -11.5
87 | Cc1ccccc1C(=O)NN=C1CCCC1 | 3
88 | Cc1cc(C)c2[nH]c(O)c(N=NC(N)=S)c2c1 | 24
89 | CCOc1ccc(NC(=O)CCN2C(=O)S/C(=C\c3ccc(OC)c(OC)c3)C2=O)cc1 | 9.1
90 | O=C(NC(=S)Nc1ccc2oc(-c3ccc(Cl)cc3)nc2c1)c1ccccc1 | 9.1
91 | Cc1cccc(C)c1NC(=O)c1c(F)c(F)c(F)c(F)c1F | -8.9
92 | CCOc1ccc(C=C2C(=O)N(C)C(=O)N(C)C2=O)cc1Cl | 12.9

Row | SMILES | displacement [%]
93 | Cc1onc(-c2ccccc2Cl)c1C(=O)N(Cc1ccccc1)C(C)C | 7.5
94 | CCc1ccccc1N(CC(=O)Nc1ccc(C)cc1)S(C)(=O)=O | 4
95 | Cc1cc(C)nc(SC(C)C(=O)N/N=C/c2ccc(Br)cc2)n1 (stereo unspecified) | -0.2
96 | CN(C)c1cccc(C(=O)NC(c2ccccc2)c2ccccc2)c1 | 0.7
97 | O=C(Nc1ccc([N+](=O)[O-])cc1Br)c1ccc(Br)o1 | 4.4
98 | CC1=NN(c2ccc(Oc3ccccc3)c(S(=O)(=O)O)c2)C(=O)C1 | 5
99 | C=CCNC(=O)CN(c1ccc(Cl)cc1)S(C)(=O)=O | 4.9
100 | C/C(=N/NC(=O)CNc1ccc(C)cc1)c1ccc(Br)s1 | -9.1
101 | N/C(=C\C(=O)c1ccccc1O)C(F)(F)F | 7.8
102 | CC1CCN(S(=O)(=O)c2cccc3ccccc23)CC1 | 4.5
103 | CCc1nnc(NS(=O)(=O)c2ccc(NC(=O)/C=C/c3cccc([N+](=O)[O-])c3)cc2)s1 | -10.1
104 | COc1ccc(NC(=O)c2ccccc2C(F)(F)F)c(OC)c1 | 1.9
105 | Cc1ccc(C(=O)NC(=S)NCCc2ccccc2)cc1 | 8.4
106 | CC(c1ccccc1)C1CC(=O)N(c2ccccc2)C1=O (stereo unspecified) | -6.6
107 | O=C(NC(=S)Nc1ccc2oc(-c3cccc(Br)c3)nc2c1)c1ccco1 | 13.6
108 | COc1ccc(-n2c(/C=C/c3c(C)n(C)c4ccc(OC)cc34)nc3ccccc3c2=O)cc1 | -7.8
109 | COc1cc(OC)cc(C(=O)Nc2ccccc2Br)c1 | 2.4
110 | Cc1cccc(C(=O)Nc2sc3c(c2C(=O)N(C)C)CCCCC3)c1 | -11.4
111 | CCc1ccc(OCC(=O)Nc2ccccc2C(F)(F)F)cc1 | -11.5
